For 73 sequences, binding signal (log2 normalized intensity) results are on record in paper PMC10726135.

The other results are listed elsewhere or left out. At the low end of the ranking the order means little. The protein was read in a cell extract, so binding may be indirect.

The test deals with T1, HNF4alpha8 (COS-7 nuclear extract) (UniProt P41235-5).
T1 sequence: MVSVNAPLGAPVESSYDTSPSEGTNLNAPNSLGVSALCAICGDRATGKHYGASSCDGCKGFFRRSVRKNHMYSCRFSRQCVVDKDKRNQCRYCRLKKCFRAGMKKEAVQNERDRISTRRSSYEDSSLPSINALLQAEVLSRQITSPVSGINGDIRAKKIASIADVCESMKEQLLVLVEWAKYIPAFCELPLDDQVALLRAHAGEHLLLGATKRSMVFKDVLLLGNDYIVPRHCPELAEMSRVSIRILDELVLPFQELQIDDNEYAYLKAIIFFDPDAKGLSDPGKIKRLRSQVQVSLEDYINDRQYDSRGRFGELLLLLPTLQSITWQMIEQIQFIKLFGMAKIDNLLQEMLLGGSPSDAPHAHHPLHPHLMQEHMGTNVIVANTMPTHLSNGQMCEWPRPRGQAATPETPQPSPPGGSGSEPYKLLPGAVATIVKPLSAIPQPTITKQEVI
In words: protein-binding microarray. As to conditions: COS-7 nuclear extract on double-stranded Agilent 4x180k PBM; binding buffer, salt, pH and temperature not given; high values mean tight binding; double strand, one strand shown; sequences stand for … in …GCCTAGGGAGATTAGAGTATCGGTCGA
With ATTTTTATGTGGCATTTCAAAGGAGGAGGC, the binding signal (log2 normalized intensity) was -1.28.
For the sequence CCCACCTATGTCCTTATCCTCATTGTGTGC, the binding signal (log2 normalized intensity) was determined as 2.11.
The figure for CCCCAAATCCCCTTCAAGTCTGAGATGAAG is 1.56.
In the case of TGGTCCCAGGGGAGGTTATCTTGGGGCTAA, the binding signal (log2 normalized intensity) is -1.13.
The figure for TCTGACTCGGGTGTTCACAGGTGACCTCTG is 5.12; for ATAATAAATAAGGGAGGTAAAAGTCCAACA it is 3.6; for GTAAACATTTGCCTTTAGGGCCCCCTGTGA it is 2.25.
The figure for TGGGCCAAAGGTCATACCTGTCTAGGTGGA is 4.74; for GTTCTTGCTACCTACTCATTCATATCACCT it is -0.91.
Then GGGCATTAGGTGGACAGGGGTGTGTTGACC, with 3.03.
For CCTGTCTGACAGGATGAATTTATTGCCCTC, the binding signal (log2 normalized intensity) worked out at 3.21.
Then TCAGAGGCCTGAAGGCCCCCAGGTAGCTGC, with 2.04; and GGACAGGTGCGACGAACGGGTAAATCCGGT, with -1.35.
With TAATCAACTGCAGGAGTCGGGAGGTAGGGG, the binding signal (log2 normalized intensity) was -1.28.
Then ACCAGACAGCACCTCTCTGATGCCATGATA, with -1.33; and TATATGAGTGTATAGTGGCACTGTTATGAC, with 1.12.
The figure for AGACTTTGCACCAAGGAGACACCCCTGCAG is 2.39; for ATTAGAACAAACGACGCTCCTATCATCCCT it is -1.01.
Turning to ACATCACCTACCTGACTCCTTAGGGATTTG, the binding signal (log2 normalized intensity) was -1.32.
With GGAATTCCTCCTCCTGTTTGTATTCCTTGT, the binding signal (log2 normalized intensity) came out at 1.01.
On to CTGTTGACCTTGAAATGCCATGTGATCTCT, for which the binding signal (log2 normalized intensity) was found to be 2.81.
Turning to TGAAAACAGGGCAAGGAACGGAATGTGTGA, the binding signal (log2 normalized intensity) is -0.694.
The figure for CGGCGGCGCAGACGGCGGATCCTCCCAGCC is -1.32; for AGAAATGCCAAGATCAGGGCTAAGATCAGA it is -1.31; for AGGGTCAGAGGACAGGCTAATGAGATAATG it is -1.19.
Regarding TGTTTCTTATCACACAGTCAACATGTCATT, the binding signal (log2 normalized intensity) was determined as 0.384.
Take AGATACGCCTGAACTTTGATCAGCATTCAA: the binding signal (log2 normalized intensity) came to 5.88.
The figure for TAATCTCAGATATGCTAATTAACCCTCCTG is 1.45; for TGAAGCCGTCCTGTCCTGGACTTTCCTTTG it is 3.43; for ACAAGATCAATCAATTTACCTCTGCTCCCC it is 2.21.
On to TTAGAGAAAAAGCCCAAGAAACTTCAAAGA, for which the binding signal (log2 normalized intensity) is -1.34.
The figure for CCCCTATGTCTAGGACTCTAGTGTTCTCTT is 1.55.
For GACGCGGTCTCAGTTAACGGGGACGCTTTA, the binding signal (log2 normalized intensity) was -1.28.
Then GTGCTTGTCTGACTGCTGCCAAAGGTAAAA, with 1.34; and CTAAGATAACCATCAAATCCTCGGAAGACG, with -1.35.
Then AATCCTCGGAAGACGCACCTCTGCATACTT, with -1.38.
Then GATGAAAGGAGCTTGGGAAGACAGATGTGA, with -1.16; and CTCCTGTTTGTATTCCTTGTCCTTGACCCT, with 4.96; and CCCCCACCTCTTTTCCCAGACGTGGTGGAT, with 3.87.
Regarding AGGAGCTTGTAAGCCACAGTACAAAGGTGA, the binding signal (log2 normalized intensity) is 4.67.
Turning to GAAACCAGAAAAATGGAGCAGCTCTGTATT, the binding signal (log2 normalized intensity) was -1.22.
Then AGGCGCGCCCGCGCTGCTCGCAAGCAGAAC, with -1.23; and TAAGGAACTGTGTAATAAGGAGTTGTGTGA, with 0.144.
The figure for AACCTCCTTTGAGATAGCTATGATTATCCT is -0.867; for GGCTACTTTCCTCCCACCTTCGAGCTTCAC it is 0.491; for TTATTATTTGTCTGGGTTATCAGTCTCTGT it is 1.4.
The figure for AGAGGGAAAGCGAGAGAGCCTGGACACACG is -1.34; for CTTATCAGCAGGGTCTTTTTGACCTGTATC it is 3.86; for TAAGCCCACTAGGGAATGAAGCTAAAAGAA it is -1.45.
Regarding TGGACTTTGAACCTCTCTTCTTTTTCGTCT, the binding signal (log2 normalized intensity) is 7.42.
The figure for GCACACATAATAGATGTGCTATATAAAAAC is -1.22; for GATCAAGTGTCTCTACTGTCCATCTTTTGC it is 1.26; for TTGGTTCCACATCAGAGAGTTCAAACTCTG it is 2.37.
Then CCCCACCCGCGGTCCGTCCCTCCTGGTCGA, with 3.57.
GCCTTTGGTACAGGGCCCAGAAAAGTAGAT: the binding signal (log2 normalized intensity) is -1.34.
For GTCCAAATAGCGCTAACTCTATATCCAAGA, the binding signal (log2 normalized intensity) was -1.02.
In the case of ACATTCCAGTGGTCCCTGGAGATAATAGTG, the binding signal (log2 normalized intensity) is -0.113.
The figure for TCTATGCCAAGCTCTGGGCTAGTCCCTGAG is -1.22; for GCCAGCCAGGGCCACCCATCAGTGGACTTT it is 7.34; for GAACAGCAAGACTTTGGCCCTGCAGACTTT it is 3.02.
The figure for CTGGGGCCACCCTCCTCTCTGGGTCAAAGG is 5.36; for TTTTCACATGGAATGTCGTGCCCTAATCTC it is 1.25.
Take AGAGATGTACACAGTTCAAAGGGCAGACAG: the binding signal (log2 normalized intensity) turned out to be 4.73.
Then AGGCGGAACAAGGCTGAAGGGAAGCTCTGG, with -1.32.
Then GAGCCAGGTGTGCTGAGGAAACTGACAGGA, with -1.23; and ACTGATAACGCCCGCCTAACCTTGAGGAGC, with -1.39.
The figure for TTATATGTCCACCTTATCTAATGCCCCAAA is 3.55.
With AGGTAGATGAATCCACAAAGATAAGAAAAA, the binding signal (log2 normalized intensity) was -1.45.
For CAGTCCTTCAGTCCTTCCCCCGCCAGATGT, the binding signal (log2 normalized intensity) came to 4.99.
With TGACTGGGGTTAACGTCCAAAGGTAATGGT, the binding signal (log2 normalized intensity) was found to be 2.93.
The figure for TATTTGATGGTACAAATTCATGGCTGGGCT is -1.39.
Turning to GCATGTGGGGGCCACGCACACCTGGATCTT, the binding signal (log2 normalized intensity) is -1.08.
Take AGGGAAGAGATCATGGCCGATCGACTAGCG: the binding signal (log2 normalized intensity) was -1.23.
